“And” between values parts separate entries of the source, which are not always exact repeats. Equal entries are not always repeated.
Experiments:
[1] = biological target: the molecule itself; assay: negative-stain electron microscopy; 15 μg/mL CaMKII-α in 20 mM Tris pH 8.0, 150 mM KCl, 5% glycerol; uranyl acetate; 2D class averages, no symmetry imposed
[2] = biological target: the molecule itself; assay: SEC; analytical gel filtration, Superose 6 10/300; elevated injection concentration of 3–5 μM; reinjection of the dodecamer/tetradecamer peak of the holoenzyme; pre-incubation with Mg2+-ATP for the holoenzyme

| Protein | stoichiometry N [1] | stoichiometry N [2] |
| --- | --- | --- |
| human CaMKII-α holoenzyme, full length, unactivated (enzyme, Ca2+/calmodulin-dependent protein kinase II alpha, human, full length; also called full-length CaMKII-α; source: E. coli Tuner (DE-3) pLysS with λ phosphatase, purified (Ni-NTA, Q-FF, Superose 6); not shown: SUMO, N-terminal, cleaved; copies: 12 or 14) not shown | 12 and 14 | – |
| human CaMKII-α holoenzyme F397A (enzyme, Ca2+/calmodulin-dependent protein kinase II alpha, human, full length; residue number according to PDB 1HKX; also called F397A holoenzyme; mutant holoenzyme; source: E. coli Tuner (DE-3) pLysS with λ phosphatase, purified; not shown: SUMO, N-terminal, cleaved) not shown | – | 2 |
